Structures are written as SMILES. In all, about 52,000 compounds went through this assay and about 1,700 (3.3%) were called active. Rule as the data show it: active = survival mostly below about 52% (no sharp cut-off); inactive = mostly above about 56%. The list shows a part of the results.

For the assay, the system named is Wild type. In words: S. aureus survival, RN4220 and DeltatarO strains – OD600, teichoic acid synthesis inhibitors, primary screen (AID 463173). To be noted: S. aureus RN4220 wild type/DeltatarO growth, OD600, 18 h, active compounds read low, screened at 18.75 µg/mL (by protocol).
Regarding `CCc1ccc(CNC(=O)c2cc3cc4ccc(OC)cc4nc3o2)cc1`, the survival was inactive: 92%.
The figure for `Cc1cccc(N2C(=O)CN(C(C)C)C(=O)C2c2ccc(F)cc2)c1C` (stereo not drawn) is inactive: 105%; for `O=C(Cn1nnc(-c2cccc(C(F)(F)F)c2)n1)NCc1ccc(F)cc1` it is inactive: 93%; for `Cc1ccc(NC(=O)C(=O)NCC(c2ccc3c(c2)OCO3)N2CCN(C)CC2)cc1C` (stereo not drawn) it is inactive: 54%.
Regarding `Cc1c(C(=O)Oc2ccc(Br)cc2)sc2ncn(Cc3ccccc3F)c(=O)c12`, the survival was inactive: 55%.
The result for `COc1ccc(-c2cc(C(=O)NCc3ccc(C)cc3)c3cc(C(C)C)ccc3n2)cc1` reads inactive: 81%.
`COc1cc(N)ncn1`: the survival was inactive: 101%.
Consider `CCN(CC)S(=O)(=O)c1ccc2c(c1)c(=O)c(C(=O)N1CCN(c3ccccc3OC)CC1)cn2C`, for which the survival was inactive: 78%.
With `COc1cc(NC(=O)Nc2c[nH]c(=O)[nH]c2=O)cc(OC)c1OC`, the survival is inactive: 69%.
As for `CC(C)CCNC(=O)Cn1cc(S(=O)(=O)Cc2ccc(F)cc2)c2ccccc21`, the survival was inactive: 91%.
Take `COc1cccc2cc(-c3nc4ccc(C)cc4[nH]3)c(=O)oc12`: the survival is inactive: 73%.
The figure for `O=C(NCCCN1CCN(c2ccccc2F)CC1)c1sc2ncccc2c1-n1cccc1` is inactive: 81%.
`Cc1cc(OCC#N)nc(N)n1`: the survival was inactive: 120%.
As for `O=C1CCSC2(C(=O)N(Cc3ccccc3)c3ccccc32)N1c1ccccc1` (stereo not drawn), the survival is inactive: 126%.
On to `O=C(C1CCCCC1)N1CCN(C(=O)C2CCCCC2)CC1`, for which the survival is inactive: 105%.
In the case of `CCCCOc1ccc(S(=O)(=O)n2nc(C)c(S(=O)(=O)N3CCCCCC3)c2C)cc1`, the survival was inactive: 77%.
Regarding `CCCC(=O)OC1=C(C(C)=O)N(Cc2ccccc2)S(=O)(=O)c2ccccc21`, the survival was inactive: 81%.
The result for `Cc1cc(S(=O)(=O)NCCc2csc(-c3cccc(F)c3)n2)ccc1F` reads inactive: 80%.
Turning to `CC(=O)N1c2ccc(S(=O)(=O)NCC3CCC(C(=O)Nc4cccc(C)c4)CC3)cc2CC1C` (stereo not drawn), the survival was inactive: 91%.
Consider `Cn1c(O)c(N=NC(=O)c2ccccc2)c2ccccc21`, for which the survival was inactive: 105%.
For `O=C(CCS(=O)(=O)c1cc2c(cc1Cl)NC(=O)CO2)NCc1ccccc1`, the survival was inactive: 117%.
On to `Cc1nc2ccc(NC(=O)C3CCCCC3)cc2c(=O)n1Cc1ccccc1`, for which the survival was inactive: 131%.
With `CCc1ccc2nc(N3CCC(C(=O)NCCC(C)C)CC3)sc2c1`, the survival is inactive: 146%.
For `CCCCNC(=O)c1cnc2c(-c3ccc(OCC)c(OCC)c3)c(C)nn2c1-c1ccccc1`, the survival is inactive: 80%.
In the case of `CC1CN(C(=O)CSCc2ccccc2)CC(C)O1` (stereo not drawn), the survival is inactive: 113%.
In the case of `CCN(Cc1ccccc1)S(=O)(=O)c1ccc(N2CCCCS2(=O)=O)cc1`, the survival is inactive: 66%.
On to `CCc1cccc(C)c1NC(=O)c1cc2ccccc2o1`, for which the survival was inactive: 121%.
The result for `Cn1cc(S(=O)(=O)c2ccccc2)c(=O)c2cc(F)c(N3CCCC3)cc21` reads inactive: 124%.
In the case of `O=C(NCc1ccccc1)c1ccc(CSc2nc3cccnc3n2Cc2ccccc2)cc1`, the survival is inactive: 99%.
Consider `O=C(c1ccccc1)C(Nc1ccccn1)c1ccccc1` (stereo not drawn), for which the survival was inactive: 117%.
Turning to `COc1ccc(CCNC(=O)c2cc3c(=O)n4ccccc4nc3n2C)cc1`, the survival is inactive: 85%.
The result for `COc1ccc(NC(=O)Cn2cc(S(=O)(=O)c3ccccc3)c(=O)c3cc(C)ccc32)cc1Cl` reads inactive: 92%.
For `CCC(=O)N1CCc2cc(Br)cc(S(=O)(=O)N3CCC(C(=O)Nc4cccc(C)c4)CC3)c21`, the survival was inactive: 94%.
`CCC(Cn1nnc2ccccc2c1=O)NC(=O)Nc1cc(OC)cc(OC)c1` (stereo not drawn): the survival was inactive: 84%.
On to `Cc1cc2c(cc3c(SCc4cccc(Cl)c4)nnc(C)n32)o1`, for which the survival was inactive: 72%.
Take `CCc1ccc(NC(=O)CSC2=Nc3ccccc3C3=NC(CC(=O)NCc4cccs4)C(=O)N23)cc1` (stereo not drawn): the survival was inactive: 73%.
Take `COc1cccc(N2CCN(C(=O)c3ccc4c(Cl)c5c(nc4c3)CCCC5)CC2)c1`: the survival is inactive: 91%.
With `CCCSc1nnc(NC(=O)Cc2coc3cc(C)ccc23)s1`, the survival is inactive: 102%.
Turning to `CC(=O)c1ccc(NC(=O)CSc2nc3c(=O)n(C)c(=O)n(C)c3n2C)cc1`, the survival was inactive: 56%.
The figure for `O=c1[nH]c(C2CCN(S(=O)(=O)Cc3ccccc3)CC2)nc2c1nnn2Cc1cccc(Cl)c1` is inactive: 107%; for `O=c1c2cccnc2n(Cc2ccc(Cl)cc2)c(=O)n1Cc1ccc(F)cc1` it is inactive: 94%; for `CNC(=O)c1cccc(-n2c(C)nc3cccnc32)c1C` it is inactive: 68%.
Regarding `CCCC(=O)N1CCCC(c2nc(-c3ccc(C(C)C)cc3)no2)C1` (stereo not drawn), the survival is inactive: 112%.
For `CC(=O)Nc1ccc(S(=O)(=O)N2CCN(c3ccc(C)c(C)c3)CC2)cc1`, the survival is inactive: 124%.
The figure for `CC(C)NC(=O)c1ccc(Cl)cc1Cl` is inactive: 102%.
With `Cc1cc(N2CCN(C)CC2)nc2ccc(NC(=O)c3ccccc3F)cc12`, the survival is inactive: 119%.
The figure for `Cc1cccc(NC(=O)Nc2ccc(C)c(C)c2)n1` is inactive: 80%; for `O=C(CSc1nnc2[nH]c(=O)cc(-c3ccccc3)n12)Nc1ccccc1C(F)(F)F` it is inactive: 71%; for `CCCN1CC=C2C(C#N)=C(N)C(C#N)(C#N)C(c3cccc(OC)c3)C2C1` (stereo not drawn) it is inactive: 102%.
The result for `Cc1cc(OCC(=O)Nc2ccc(C(=O)OC3CCCCC3)cc2)ccc1Cl` reads inactive: 67%.
Take `O=C(c1c[nH]c2ccc(S(=O)(=O)Nc3ccccc3F)cc2c1=O)N1CCCCCC1`: the survival is inactive: 79%.
Regarding `CCOc1ccc(NC(=O)C(=O)NCCc2sc(-c3ccc(C)cc3)nc2C)cc1`, the survival was inactive: 55%.
As to `CC(C)c1ccc(C(=O)CC2(O)C(=O)N(CCc3ccccc3)c3ccc(Cl)cc32)cc1` (stereo not drawn), the survival was inactive: 33%.
Regarding `CNC(=O)C1CCC(Cn2c(=O)c3sccc3n(CC(=O)Nc3cc(C)cc(C)c3)c2=O)CC1` (stereo not drawn), the survival is inactive: 65%.
On to `COc1cccc(NC(=O)Cn2nc(-c3ccncc3)ccc2=O)c1`, for which the survival was inactive: 79%.
Consider `CC1CCCCN1CCCNC(=O)c1sc2ncccc2c1-n1cccc1` (stereo not drawn), for which the survival was inactive: 19%.
The result for `CCC(C)n1c(=N)c(C(=O)NCc2ccco2)cc2c(=O)n3cc(C)ccc3nc21` (stereo not drawn) reads inactive: 79%; that for `COc1ccc(OC)c(NC(=O)C2CCN(S(=O)(=O)c3c(C)noc3/C=C/c3ccc(C)cc3)CC2)c1`, inactive: 83%.

The record behind these values is PubChem BioAssay AID463173 (ICCB-Longwood Screening Facility, Harvard Medical School, 2010).
